Reference: PubChem BioAssay AID1918941 (Molecular Pharmacology Branch, DTP, NCI, 2023)
Not every entry of the source has a single result; some have several. The list is limited to them. The source may hold further records. Values that stand side by side repeat one measurement in other runs, samples, wells, individuals or studies. Additions like (4×) say how often a value occurs here.

Test system: SW 1271 complex spheroids, viability
Assay: Anticancer human tumor SW 1271 cell line growth inhibition [LSD1];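 note: spheroids exposed to agents for 7 days before luminescence read; 100% = DMSO vehicle control viability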
Conditions: stronger effect = lower value
From the text: Multicellular complex tumor spheroid response to LSD1 Inhibitor Iadademstat in combination with a variety of drugs and investigational agents in selected tumor cell lines
The current study was undertaken to assess response to LSD1 inhibitors in combination with standard-of-care drugs and investigational agents in solid tumor complex spheroid models as well as in the K-562 leukemia. Complex spheroids include a stromal component modeled by human endothelial cells (HUVEC) and fibroblasts modeled by human mesenchymal stem cells (MSCs). The concentration ranges selected for each drug and investigational agent were based upon clinically achievable concentrations if the clinical Cmax of the agent was known.
Compounds. The drugs and investigational agents used in this study are listed on Table 1. All of the agents used, including staurosporine (NSC755774) and gemcitabine (NSC613327), were obtained from the Developmental Therapeutics Program, NCI. FDA-approved anticancer drugs are available from the NCI at http://dtp.nci.nih.gov/branches/dscb/oncology_drugset_explanation.html. Drugs and investigational agents were >95% pure by proton nuclear magnetic resonance (NMR) and liquid chromatography/mass spectrometry (LC/MS). Stock solutions were prepared at 400x in DMSO, stored at -70 degrees C, and diluted in fresh medium prior to their use. The final concentration of DMSO in cell culture wells never exceeded 0.25% (v/v). The FDA-approved anticancer drug set is available from the Developmental Therapeutics Program at https://dtp.cancer.gov/organization/dscb/obtaining/available_plates.htm. All drugs and investigational agents were tested over a range starting from a high concentration at or near the clinical Cmax and decreasing in half-log increments. If the clinical Cmax for an agent had not been determined, the highest concentration tested was 10 microM.
Cell Lines. The patient-derived cancer cell (PDC) lines: 292921-168-R-J2-PDC, K24384-001-R-PDC, and 521955-158-R2-J5-PDC pancreatic carcinomas, 556581-035-R-J1 ovarian carcinoma, 324938-238-R-J1-PDC, 855422-203-R-J1-PDC and 883617-216-R-J1-PDC urothelial bladder carcinomas, 743489-274-T-PDC renal cell carcinoma, 138582-R-J1 Merkel cell tumor, K60290-347-R-J1 and K57222-313-R-J1-PDC glioblastomas, 653999-131-R-J2-PDC, LG0703-F948-PDC, and 349418-098-R-PDC non-small cell lung carcinomas, 885512-296-R-J2-PDC, 171881-019-R-J1-PDC breast carcinomas and 186277-243-T-J2-PDC and 233499-124-R-J2-PDC colon carcinomas were obtained from the NCI Patient-Derived Models Repository (PDMR, https://pdmr.cancer.gov). The established cell lines NCI/ADR-RES (RRID:CVCL_14520 and OVCAR-5 (RRID:CVCL_1628) ovarian carcinomas, 786-O (RRID:CVCL_1051) and A498 (RRID:CVCL_A498) renal cell carcinoma, NCI-H211 (ATCC, cat. CRL-5824; RRID:CVCL_1529), NCI-H196 (ATCC, cat. CRL-5823, RRID:CVCL_1509), SW 1271 (ATCC, cat. CRL-2177, RRID:CVCL_1716) and NCI-H1876 (ATCC, cat. CRL-5902, RRID:CVCL_1503) small cell lung carcinomas, MDA-MB-231 (RRID:CVCL_0062) and MDA-MB-468 (RRID:CVCL_0419)breast carcinomas (10-12). Pooled donor human umbilical vein endothelial cells (HUVEC, Lonza, cat. CC-2519) and human mesenchymal stem cells (hMSC, Lonza, cat. PT-2501) were purchased from Lonza (Walkersville, MD).
Cell Culture. All cells were maintained in an incubator at 37 degrees C and 5% CO2 with 95% humidity. The PDC lines were cultured according to standard operating procedures established by the NCI PDMR (https://pdmr.cancer.gov). Briefly all PDCs were thawed and cultured in Matrigel-coated flasks prepared with a working solution of 1X Ham's F-12 nutrient mix, without supplementation (Invitrogen, Waltham, MA, cat. 11765054), 100 U/mL penicillin-streptomycin (Invitrogen, cat. 15140122), and 2.5% Matrigel (Corning Inc., Corning, NY, cat. 354248) for the first three passages. […]

SMILES | viability, T/C (compound alone 0.316 µM) | viability, T/C (compound alone 1 µM) | viability, T/C (compound alone 3.16 µM) | viability, T/C (compound alone 0.1 µM) | viability, T/C (compound alone 10 µM) | viability, T/C (compound alone 3 µM)
NC1CC1c1ccc(-c2cccc(O)c2)cc1 (stereo not drawn) | 82.1, 83.4, 83.1, 89.5, 87.7, 83, 95.8, 77.3 (3×), 82.5, 79.5, 77.5, 83.7, 80.8, 90.5, 62.5, 86.6, 75.6, 71.2, 67.1, 78.8, 79.6, 81.5, 73.3% | 86.6 (2×), 74.3, 83.7, 75.8, 73.6, 79, 86.2, 70.8, 72.6, 75.4, 81.4, 79.6, 73.4, 74.6, 78.8, 73, 88.5, 61, 92.4, 76.3, 88.4, 89.4, 68.4% | 76.7, 91.9, 72.6, 76.6, 67.4, 74, 82.2, 80.9, 77.7, 80.5, 62.7, 79.9, 80.7, 72.5, 73.6, 75.7, 68.3, 75.6, 81.5, 69.2, 94.3, 82.3, 74.2, 82, 70.6% | – | – | –
NC1CCC(NC2CC2c2ccccc2)CC1 (stereo not drawn) | – | 78.9, 93.4, 88, 87 (2×), 93.5 (2×), 106, 105, 86, 79.8, 72.9, 94.9, 87.1, 104, 93.9, 92.6, 82.3, 86.3, 91.3, 88.7, 84.6, 100, 83.4, 71.5% | 77.3, 84.9, 92, 75.9, 91.9, 98.5, 98.9, 83.7, 87.3, 104, 97, 81.5, 99.7, 109, 95.5, 87.9, 101, 88.5, 90.8, 84, 90.1, 77.2, 91.3, 86.5, 77.9% | 90.3, 86.8, 98, 93.3, 96.6, 112, 99.4, 76.7, 75.9, 79.9, 115, 72.2, 83.5 (2×), 107, 89.3, 83.1, 77.8, 96.3, 93, 108, 101 (2×), 91, 79.7% | 78, 83.1, 101 (2×), 70.2, 85.1, 91.5, 88.9, 99.4, 81.4, 103 (2×), 102, 94.9, 95.9, 83.4, 79.6, 81.1, 92.9, 84.3, 78.1, 81.3, 71.3% | –
O=C(C=Cc1cccc(S(=O)(=O)Nc2ccccc2)c1)NO | – | – | – | – | – | 115% and 0.28%
